Data on three molecules can be found in article PMC3002266.

Protein sequences, listed by entry. Tags and fused reporters are not part of them.
UniProt Q9H3S7: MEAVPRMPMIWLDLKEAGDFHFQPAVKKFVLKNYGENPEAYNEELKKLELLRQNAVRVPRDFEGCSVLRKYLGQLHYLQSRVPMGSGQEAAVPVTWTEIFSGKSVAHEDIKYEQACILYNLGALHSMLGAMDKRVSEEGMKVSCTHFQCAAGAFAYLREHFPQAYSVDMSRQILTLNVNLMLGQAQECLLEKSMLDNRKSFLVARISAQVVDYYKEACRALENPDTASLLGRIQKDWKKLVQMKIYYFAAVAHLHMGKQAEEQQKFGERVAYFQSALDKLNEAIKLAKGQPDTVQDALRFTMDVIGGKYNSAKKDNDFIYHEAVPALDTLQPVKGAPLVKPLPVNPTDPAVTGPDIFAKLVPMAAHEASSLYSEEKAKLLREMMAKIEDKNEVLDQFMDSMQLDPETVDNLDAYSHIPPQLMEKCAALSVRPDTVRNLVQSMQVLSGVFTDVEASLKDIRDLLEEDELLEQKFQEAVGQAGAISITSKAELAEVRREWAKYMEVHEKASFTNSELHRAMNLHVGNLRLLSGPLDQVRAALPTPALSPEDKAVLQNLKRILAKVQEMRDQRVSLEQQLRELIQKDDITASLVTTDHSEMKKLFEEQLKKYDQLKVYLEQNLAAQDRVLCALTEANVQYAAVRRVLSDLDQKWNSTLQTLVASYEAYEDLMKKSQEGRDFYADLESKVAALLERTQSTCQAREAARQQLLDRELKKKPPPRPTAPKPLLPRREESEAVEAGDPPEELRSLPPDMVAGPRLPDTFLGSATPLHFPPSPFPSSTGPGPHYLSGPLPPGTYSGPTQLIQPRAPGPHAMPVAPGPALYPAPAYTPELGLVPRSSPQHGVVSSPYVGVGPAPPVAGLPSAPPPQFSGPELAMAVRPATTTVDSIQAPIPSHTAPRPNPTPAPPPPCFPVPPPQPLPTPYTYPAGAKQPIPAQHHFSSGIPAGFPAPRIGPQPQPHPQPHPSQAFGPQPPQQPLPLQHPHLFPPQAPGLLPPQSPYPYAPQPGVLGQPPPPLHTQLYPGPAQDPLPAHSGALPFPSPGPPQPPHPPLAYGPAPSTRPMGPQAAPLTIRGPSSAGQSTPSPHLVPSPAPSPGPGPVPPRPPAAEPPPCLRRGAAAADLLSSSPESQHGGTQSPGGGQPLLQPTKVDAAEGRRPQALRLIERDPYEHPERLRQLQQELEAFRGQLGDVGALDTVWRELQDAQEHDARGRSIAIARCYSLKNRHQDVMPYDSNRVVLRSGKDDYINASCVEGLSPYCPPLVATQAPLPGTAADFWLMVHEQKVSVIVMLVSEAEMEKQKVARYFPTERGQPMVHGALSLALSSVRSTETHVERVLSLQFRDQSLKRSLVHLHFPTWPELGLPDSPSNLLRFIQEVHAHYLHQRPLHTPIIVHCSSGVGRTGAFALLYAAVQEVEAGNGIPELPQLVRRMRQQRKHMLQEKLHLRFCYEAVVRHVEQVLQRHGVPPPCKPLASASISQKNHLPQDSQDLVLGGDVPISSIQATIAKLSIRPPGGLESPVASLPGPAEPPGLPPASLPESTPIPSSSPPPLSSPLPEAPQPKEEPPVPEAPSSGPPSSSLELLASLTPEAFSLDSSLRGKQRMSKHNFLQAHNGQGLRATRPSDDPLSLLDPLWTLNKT
UniProt P62993: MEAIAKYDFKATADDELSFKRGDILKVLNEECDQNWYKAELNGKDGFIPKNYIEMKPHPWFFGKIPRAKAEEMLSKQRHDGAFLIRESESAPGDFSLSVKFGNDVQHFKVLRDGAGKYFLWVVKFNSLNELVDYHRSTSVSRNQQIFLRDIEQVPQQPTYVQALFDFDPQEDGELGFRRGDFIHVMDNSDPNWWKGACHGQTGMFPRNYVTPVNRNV

No constants are given. Whether binding was seen depends on the method and setting. For part of these data: Binding seen in cells or lysates may run through a third protein. Some binding calls cover weakened binding; strength is not graded here. Where a sequence is shown, tags or fusion partners need not be part of it.

For assay [1], the target named is EGFP-HD-PTP, full length (human) (UniProt Q9H3S7). Briefly: co-IP; HEK293T cotransfected with EGFP-HD-PTP and Myc-GrpL (NP-40 lysis buffer) or HA-Grb2 (HEPES lysis buffer, 1% Triton X-100); anti-GFP antibodies and Protein A-Sepharose overnight at 4°C; blot with anti-Myc or anti-HA.
For assay [2], the target named is LexA DNA-binding domain fusion of full length human HD-PTP (bait, pBridgeLexA-HD-PTP) (human) (UniProt Q9H3S7). Kind of assay: two-hybrid; S. cerevisiae L40; bait LexA DNA-binding domain fusion of full length HD-PTP, preys GAL4 activation domain fusions (human colon cDNA library in pGAD-DS, and co-transformed single preys); HIS3 growth on SD-Trp-Leu-His-Met and beta-galactosidase filter assay; v-Src expressed without Met.

Consider HA-Grb2 (from UniProt P62993 1-217), for which the binding entry in assay [1] was “binds”.

B1: Activation Domain (AD)-GrpL, full length GrpL fused with the Gal4 activation domain (protein, UniProt O75791 1-330)
chain: MEAVAKFDFTASGEDELSFHTGDVLKILSNQEEWFKAELGSQEGYVPKNFIDIQFPKWFHEGLSRHQAENLLMGKEVGFFIIRASQSSPGDFSISVRHEDDVQHFKVMRDNKGNYFLWTEKFPSLNKLVDYYRTNSISRQKQIFLRDRTREDQGHRGNSLDRRSQGGPHLSGAVGEEIRPSMNRKLSDHPPTLPLQQHQHQPQPPQYAPAPQQLQQPPQQRYLQHHHFHQERRGGSLDINDGHCGTGLGSEMNAALMHRRHTDPVQLQAAGRVRWARALYDFEALEDDELGFHSGEVVEVLDSSNPSWWTGRLHNKLGLFPANYVAPMTR
Take B1: the binding result in assay [2] is reported as “binds”.

B2: Myc-GrpL (protein, UniProt O75791 1-330)
chain: MEAVAKFDFTASGEDELSFHTGDVLKILSNQEEWFKAELGSQEGYVPKNFIDIQFPKWFHEGLSRHQAENLLMGKEVGFFIIRASQSSPGDFSISVRHEDDVQHFKVMRDNKGNYFLWTEKFPSLNKLVDYYRTNSISRQKQIFLRDRTREDQGHRGNSLDRRSQGGPHLSGAVGEEIRPSMNRKLSDHPPTLPLQQHQHQPQPPQYAPAPQQLQQPPQQRYLQHHHFHQERRGGSLDINDGHCGTGLGSEMNAALMHRRHTDPVQLQAAGRVRWARALYDFEALEDDELGFHSGEVVEVLDSSNPSWWTGRLHNKLGLFPANYVAPMTR
B2: the binding result in assay [1] was “binds”.
